# In PMC8738732:
# Sequences of proteins named here, by UniProt entry; tags and fusion partners are left off.
# UniProt P10417: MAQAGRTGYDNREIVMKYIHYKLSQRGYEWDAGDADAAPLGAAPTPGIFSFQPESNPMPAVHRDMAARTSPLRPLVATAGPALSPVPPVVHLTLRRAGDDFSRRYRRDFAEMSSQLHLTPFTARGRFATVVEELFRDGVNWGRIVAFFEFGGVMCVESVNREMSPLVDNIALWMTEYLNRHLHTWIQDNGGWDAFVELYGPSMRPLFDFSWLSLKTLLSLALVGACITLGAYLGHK
# These are yes or no findings as the source states them, for the method shown. In cells and extracts the contact can be indirect. Some results given as binding are weak or reduced against the parent protein; the word gives no strength. For some assays here: Where a sequence is shown, tags or fusion partners need not be part of it.
# What was measured:
# [1] = molecular target: T1, Carnitine palmitoyltransferase 1a (Cpt1a), endogenous (mouse (endogenous in MH-S and in mouse lung macrophages)) (UniProt P97742); assay: co-IP; lung macrophages isolated at 21 days from DN-MCU-Lyz2-cre mice and WT littermates exposed to saline or bleomycin; Cpt1a immunoprecipitation, immunoblot for Bcl-2 and Cpt1a
# T1 sequence: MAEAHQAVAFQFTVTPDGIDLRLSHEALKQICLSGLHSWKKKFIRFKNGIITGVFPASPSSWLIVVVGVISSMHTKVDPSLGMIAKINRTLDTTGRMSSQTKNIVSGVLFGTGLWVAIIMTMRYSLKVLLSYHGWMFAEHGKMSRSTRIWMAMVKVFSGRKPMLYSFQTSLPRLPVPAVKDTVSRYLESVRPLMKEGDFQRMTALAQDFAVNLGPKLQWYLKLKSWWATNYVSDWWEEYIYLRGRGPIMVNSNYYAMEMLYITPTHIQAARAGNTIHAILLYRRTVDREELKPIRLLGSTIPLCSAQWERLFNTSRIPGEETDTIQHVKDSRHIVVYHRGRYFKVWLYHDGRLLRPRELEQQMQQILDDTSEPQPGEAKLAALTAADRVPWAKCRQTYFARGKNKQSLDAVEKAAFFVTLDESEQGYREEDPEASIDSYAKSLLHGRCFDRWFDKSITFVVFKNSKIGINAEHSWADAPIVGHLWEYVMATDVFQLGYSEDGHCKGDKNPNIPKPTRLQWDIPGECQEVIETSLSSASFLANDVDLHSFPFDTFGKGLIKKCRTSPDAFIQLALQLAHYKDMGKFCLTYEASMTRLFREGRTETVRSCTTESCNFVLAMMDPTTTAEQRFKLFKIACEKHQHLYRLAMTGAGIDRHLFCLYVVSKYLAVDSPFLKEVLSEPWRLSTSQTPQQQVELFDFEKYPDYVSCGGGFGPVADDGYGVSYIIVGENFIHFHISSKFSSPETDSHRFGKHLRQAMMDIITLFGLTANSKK
# [2] = molecular target: T2, Cpt1a-His-V5 (UniProt P97742); assay: pull-down; V5-His-tagged protein purified from transfected MH-S cells (as previously described, ref. 25), immunoblot for the partner
# T2 sequence: T1 sequence
# [3] = molecular target: T1, Carnitine palmitoyltransferase 1a (Cpt1a), endogenous (mouse (endogenous in MH-S and in mouse lung macrophages)); assay: co-IP; MH-S cells (transfected with empty, MCUWT and/or Cpt1a; or treated with octanoate 10 µM or palmitate 100 µM for 3 h; or vehicle), NP40 lysis buffer; Cpt1a antibody crosslinked to Dynabeads Protein G, 1 h at room temperature; immunoblot for Bcl-2 and Cpt1a
# [4] = molecular target: T2, Cpt1a-His-V5; assay: as above
# [5] = molecular target: T2, Cpt1a-His-V5; assay: condition: only cells treated with ABT-199 (1 μM, overnight); co-IP; MH-S cells transfected to overexpress Cpt1a and treated with ABT-199 (1 μM, overnight); lysate immunoprecipitated with Cpt1a antibody, immunoblot for Bcl-2
substance,measurement,setting,value
"B-cell lymphoma-2 (Bcl-2), endogenous (from UniProt P10417 1-236)",binding,[1],binds
same,binding,[2],binds
same,binding,[3],binds
same,binding,[4],binds
same,binding,[5],no binding
